# Results: the antibiotic and cytotoxicity screens of Wong et al. (2023)
# The other results are listed elsewhere or left out.
# Columns and labels:
# HSkMC = human skeletal muscle cells; test: cytotoxicity call (relative viability < 0.9); conditions: 10 µM
# HepG2 = test: cytotoxicity call (relative viability < 0.9); conditions: 10 µM
# S. aureus RN4220 = test: growth inhibition call (relative growth <= 0.2); conditions: 50 µM
Structure (SMILES),cytotoxicity call (HSkMC),cytotoxicity call (HepG2),growth inhibition call (S. aureus RN4220)
C[C@@H]1CN([C@H](C)CO)C(=O)c2c(c3ccccc3n2C)-c2ccccc2CO[C@@H]1CN(C)C(=O)Nc1cccc(Cl)c1Cl,active,inactive,inactive
O=C(O)c1ccccn1,inactive,inactive,inactive
O=C(Nn1cnnc1)c1ccccc1,inactive,inactive,inactive
C[C@@H]1CN([C@@H](C)CO)C(=O)c2cc(NC(=O)Cn3cnnn3)ccc2O[C@@H]1CN(C)Cc1ccc(-c2ccccc2)cc1,inactive,inactive,inactive
CN1CC(O)C2=CC(=NNC(N)=O)C(=O)C=C21 (stereo unspecified),inactive,inactive,inactive
Cc1ccc(S(=O)(=O)Nc2ccc3c(c2)C(=O)N([C@H](C)CO)C[C@@H](C)[C@@H](CN(C)C(=O)Nc2ccc4c(c2)OCO4)OCCCC[C@H](C)O3)cc1,inactive,inactive,inactive
Cc1noc(C)c1NC(=O)Nc1ccc2c(c1)C(=O)N([C@H](C)CO)C[C@H](C)[C@@H](CN(C)Cc1ccncc1)OCCCC[C@@H](C)O2,inactive,inactive,inactive
COc1ccc(-c2cnc3c(c2)C(=O)N([C@@H](C)CO)C[C@@H](C)[C@H](CN(C)C(=O)Cc2cccnc2)O3)cc1,inactive,inactive,inactive
O=C(O)c1cnc[nH]1,inactive,inactive,inactive
C[C@H](CO)N1C[C@H](C)[C@@H](CN(C)S(C)(=O)=O)Oc2ccc(NC(=O)CCC(F)(F)F)cc2CC1=O,inactive,inactive,inactive
COCC(=O)Nc1ccc2c(c1)OC[C@H](C)N(Cc1ccccc1OC)C[C@H](C)[C@H](OC)CN(C)C2=O,inactive,inactive,inactive
N[C@H]1CCCN(Cc2cccs2)C1,inactive,inactive,inactive
O=C(C[C@H]1C[C@H]2c3cc(NC(=O)Nc4ccccc4F)ccc3O[C@H]2[C@@H](CO)O1)NCc1ccc(Oc2ccccc2)cc1,active,inactive,inactive
C[C@H]1CN([C@@H](C)CO)C(=O)c2cccc(NC(=O)C3CCOCC3)c2O[C@@H]1CN(C)Cc1ccc2c(c1)OCO2,inactive,inactive,inactive
COC[C@@H]1CN(C)N=C(C2CC2)O1,inactive,inactive,inactive
COc1ccc(S(=O)(=O)N(C)C[C@H]2Oc3ccc(NS(=O)(=O)c4ccc(C)cc4)cc3CC(=O)N([C@@H](C)CO)C[C@H]2C)cc1,inactive,inactive,inactive
C[C@H](CO)N1C[C@H](C)[C@H](CN(C)C(=O)Nc2ccccc2)Oc2ccc(NC(=O)Nc3cccc4ccccc34)cc2C1=O,inactive,inactive,inactive
COCCOC(=O)N1C(=O)[C@@]2(c3cc(C#Cc4ccc(OC)cc4)ccc31)[C@H](C(=O)N1CCN(c3ncccn3)CC1)[C@H]1C(=O)O[C@H](c3ccccc3)[C@H](c3ccccc3)N1[C@@H]2c1ccccc1OCCO,inactive,inactive,inactive
NCCSC(=S)NC1CCCCCCC1,inactive,inactive,inactive
C[C@@H]1CN([C@H](C)CO)C(=O)c2cc(/C=C/c3ccccc3)cnc2O[C@H]1CN(C)C(=O)CN1CCOCC1,inactive,inactive,inactive
CC(C)C[C@@H](NC(=O)[C@@H](C)N)C(=O)O,inactive,inactive,inactive
O=C1c2ccccc2C(=O)C1c1ccccc1,inactive,inactive,inactive
Cc1cc(C(=O)Nc2cccc3c2O[C@H](CN(C)C(=O)NC2CCCCC2)[C@@H](C)CN([C@H](C)CO)C3=O)n(C)n1,inactive,inactive,inactive
C[C@H]1CC[C@@H]2C(C(=O)O[C@H]3[C@H]4O[C@@]4(C)[C@H]4[C@@H](O[C@H]5O[C@@H](CO)[C@@H](O)[C@@H](O)[C@@H]5O)OC=C[C@@]34O)=CO[C@H](O[C@H]3O[C@@H](CO)[C@@H](O)[C@@H](O)[C@@H]3O)[C@@H]21,inactive,inactive,inactive
C[C@H]1CN([C@@H](C)CO)C(=O)c2cccc(NS(=O)(=O)c3cccs3)c2O[C@@H]1CN(C)CC1CC1,inactive,inactive,inactive
C[C@H](CO)N1C[C@H](C)[C@H](CN(C)Cc2ccc(C(=O)Nc3ccccc3N)cc2)Oc2ccc(NC(=O)NC3CCCCC3)cc2CC1=O,inactive,inactive,inactive
COc1ccc(S(=O)(=O)Nc2ccc3c(c2)C(=O)N([C@H](C)CO)C[C@H](C)[C@H](CN(C)S(=O)(=O)c2ccc(OC)cc2)O3)cc1,inactive,inactive,inactive
